Data taken from publication PMC4336329 (PLoS ONE, 2015).
Out of some 310,000 compounds screened, about 14,000 (4.5%) showed an effect of 50% or more. The effect is printed as a negative number. The list shows a part of the results.

Each compound was assayed against human ether-à-go-go-related gene (hERG) potassium channel (human, UniProt Q12809) (assay: primary screen, population patch clamp on CHO cells stably expressing hERG).
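Further: peak tail current of the secondary pulse compared with the same well before compound.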

Sequence of human ether-à-go-go-related gene (hERG) potassium channel (Q12809 whole entry, looked up): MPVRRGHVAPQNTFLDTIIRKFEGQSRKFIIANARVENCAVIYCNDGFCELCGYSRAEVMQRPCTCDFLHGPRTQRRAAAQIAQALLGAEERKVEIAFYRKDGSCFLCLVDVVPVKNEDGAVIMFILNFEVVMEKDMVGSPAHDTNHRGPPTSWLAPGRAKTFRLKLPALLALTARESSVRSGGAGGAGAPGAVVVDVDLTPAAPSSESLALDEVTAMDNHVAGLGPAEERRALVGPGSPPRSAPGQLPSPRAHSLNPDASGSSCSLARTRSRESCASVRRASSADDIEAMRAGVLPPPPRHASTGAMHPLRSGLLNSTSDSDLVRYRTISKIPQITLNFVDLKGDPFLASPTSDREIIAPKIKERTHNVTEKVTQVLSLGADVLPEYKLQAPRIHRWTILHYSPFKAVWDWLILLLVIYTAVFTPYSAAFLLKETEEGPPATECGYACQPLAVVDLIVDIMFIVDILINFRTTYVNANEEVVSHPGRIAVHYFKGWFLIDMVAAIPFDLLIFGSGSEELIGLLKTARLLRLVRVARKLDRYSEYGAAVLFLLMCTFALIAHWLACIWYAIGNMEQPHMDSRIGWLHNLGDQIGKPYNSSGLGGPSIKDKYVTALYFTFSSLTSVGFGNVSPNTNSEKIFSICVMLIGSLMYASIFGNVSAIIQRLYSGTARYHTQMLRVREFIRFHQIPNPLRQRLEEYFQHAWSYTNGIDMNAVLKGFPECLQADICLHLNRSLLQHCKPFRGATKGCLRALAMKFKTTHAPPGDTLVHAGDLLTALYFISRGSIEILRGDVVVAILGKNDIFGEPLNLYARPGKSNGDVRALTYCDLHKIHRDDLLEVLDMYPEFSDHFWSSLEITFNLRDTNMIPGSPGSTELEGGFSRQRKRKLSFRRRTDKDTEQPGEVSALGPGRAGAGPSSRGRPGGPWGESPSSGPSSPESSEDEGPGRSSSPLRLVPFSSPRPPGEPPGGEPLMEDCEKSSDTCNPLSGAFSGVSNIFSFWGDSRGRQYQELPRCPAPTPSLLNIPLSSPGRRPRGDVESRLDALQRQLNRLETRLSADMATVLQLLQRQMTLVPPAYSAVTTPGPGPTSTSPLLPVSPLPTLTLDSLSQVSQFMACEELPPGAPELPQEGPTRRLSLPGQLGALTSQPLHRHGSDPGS

Compound | hERG current change (%, negative = inhibition) at 10uM [%]
COc1ccc(C(c2nnnn2CC2CCCO2)N2CCN(c3ccc(F)cc3)CC2)cc1.Cl (stereo not drawn) | -44.2
O=C(CSc1nc2ncc(Br)cc2[nH]1)Nc1ccc2c(c1)OCO2 | 15.7
O=C(COc1ccc(F)cc1)N(CC1=CCS(=O)(=O)C1)c1ccccc1 | -11.9
COC(=O)C1=C(C)NC(=O)NC1c1ccc2ccccc2c1 (stereo not drawn) | 13.8
CCOC(=O)C1(Cc2ccccc2C(F)(F)F)CCN(C2CCN(C(C)C)CC2)CC1 | -36.6
CCOC(=O)c1cc(-c2ccc(C)o2)n[nH]1 | 13.8
COc1ccc(C(=O)OC(C)CN2CCN(C)CC2)cc1.Cl (stereo not drawn) | 5.05
COc1ccc(C(=O)NCCCc2nc3ccccc3n2Cc2ccccc2C)cc1OC | -55.4
CCOc1ccc(CCNC(=O)c2cc([N+](=O)[O-])ccc2N2CCOCC2)cc1OCC | -37.3
COc1ccc(-n2c(=O)c3ccccc3n(Cc3cccc(C)c3)c2=O)cc1OC | -0.137
CCN1C(=NCCCCO)N[C@@H](c2cccc(C(F)(F)F)c2)C(C(=O)OC)=C1C | 5.89
CC1=CN2CC(O)CN=C2C=C1.Cl (stereo not drawn) | -1.57
Cc1sc2ncnc(NCC3CCCO3)c2c1C.Cl (stereo not drawn) | -1.4
CC12CCC(C(=O)N(c3ccccc3Cl)C1=O)C2(C)C (stereo not drawn) | 5.93
CCN(CC(=O)Nc1c(F)cccc1F)C(=O)/C=C/c1c(C)nn(-c2ccc(F)cc2)c1C | 5.39
O=C(O)CC(Cc1ccccc1)C(=O)Nc1ccc([N+](=O)[O-])cc1 (stereo not drawn) | -11
Cn1nc(C(F)(F)F)c(-c2ccc(F)cc2)c1NC(=O)Nc1ccc(F)cc1 | 8.29
O=C(Nc1nc2c(Cl)cccc2s1)C1CC1 | 5.69
COc1ccccc1C(=O)NCC(=O)NC1CCCc2ccccc21 (stereo not drawn) | 6.11
Cc1ccc(/C=C(\NC(=O)c2ccc(C)cc2)C(=O)NCCCn2ccnc2)cc1 | -84.9
CN(C)C(=S)c1ccccc1 | 4.5
CCn1c(/C=C/c2cc(Br)ccc2O)nc2ccccc2c1=O | 17.9
Cc1no[n+]([O-])c1COc1ccc(/C=N/n2nnnc2N)cc1 | 4.03

Compound | hERG current change (%, negative = inhibition) at 10uM [%]
CC(C)OP(=O)(c1ccc(N(C)C)cc1)C(O)c1c(Cl)cccc1Cl (stereo not drawn) | 2.64
COc1ccc(CC(=O)NNC(=O)CCC(=O)Nc2cc(C)ccc2C)cc1 | 10.4
COc1ccc(CN(C(=O)CCC(=O)Nc2cc(C)on2)C(C(=O)NC(C)(C)C)c2cccc(OC)c2OC)cc1 (stereo not drawn) | -0.139
Cc1cc2c(c(=O)o1)C(CC(C)C)C(C#N)=C(N)O2 (stereo not drawn) | 5.19
COC(=O)COc1cccc(NC(=O)C(c2ccccc2)c2ccccc2)c1 | 8.99
CCC(=O)Nc1cccc(C2=NOC3(C2)C[C@H](C(N)=O)N(C(=O)c2ccc(Cl)cc2)C3)c1 (stereo partly drawn) | 2.02
Cc1ccc(C(=O)NCC2CCCO2)o1 (stereo not drawn) | 7.49
Cc1ccc(NP(=O)(c2ccccc2)c2nc3ccccc3s2)cc1 (stereo not drawn) | 3.27
COc1ccc(NC(=S)NCCc2c[nH]c3ccccc23)c(OC)c1 | 4.23
Cc1cc(C)n2nc(SCC(=O)N(C)C3CCCCC3)nc2n1 | -15.6
Cl.N=C(N)c1ccc(N)cc1 | 17.9
Cc1cc(S(=O)(=O)NC(C)C)ccc1OCC(=O)NCc1ccccc1 | -2.28
O=C(O)c1cc(-c2ccccc2)nc2ccccc12 | 15.6
COc1ccc(/C=C/c2noc(-c3ccccc3O)n2)cc1 | 5.94
CCn1c2ccccc2c2cc(/C=N/n3cn[nH]c3=S)ccc21 | 2.82
O=C(Nc1nc2ccc(F)cc2s1)c1ccc(N2CCCC2=O)cc1 | 11.9
CC1=NN(C(=O)c2ccccc2Cl)C(O)(c2cccnc2)C1 (stereo not drawn) | 17.8
Cc1cc(NC(=O)Cn2nc(C(F)(F)F)c3c2CCCC3)no1 | -0.743
C=CCS(=O)(=O)c1cccc2cccnc12 | 23.8
O=C(CSc1cccc(C(F)(F)F)c1)N1CCN(S(=O)(=O)c2ccccc2)CC1 | -33.8
COCCNC(=O)c1cnn2c(C(F)(F)F)cc(-c3ccc4c(c3)OCO4)nc12 | -16.4
COc1ccc2c(c1)CCC1C2=NN(/C(C)=C\C(C)=O)C1c1ccc(F)cc1 (stereo not drawn) | 5.82
